Source: PubChem BioAssay AID686978 (National Center for Advancing Translational Sciences (NCATS), 2013)
The whole screen tested about 420,000 compounds, of which about 64,000 (15%) were called active. Inconclusive results, whose numbers are uncertain, are shown with a selection of clear calls. Calls come from the whole dose curve; as a rule, active = well fitted inhibition curve with a large enough effect; inconclusive = small, poorly fitted or top-dose-only effect; inactive = flat fitted curve, though single readings scatter. No potency is given beside an inconclusive call; the fits are too rough.

assay: qHTS for Inhibitors of human tyrosyl-DNA phosphodiesterase 1 (TDP1): qHTS in cells in absence of CPT; details: DT40 Tdp1-/- hTDP1 cells, no CPT, ATP luminescence, 48 h; activity change, negative = growth inhibition: at 46.2 µM (top of the series); note: nearly all actives have a fitted effect of over 55% in size
Procedure, shortened: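 Compound effects on proliferation are scored in DT40 Tdp1-/-;hTDP1 cells in the absence of CPT. ATP levels (CellTiter-Glo luminescence) are recorded after a ≥48 hr, 37 °C incubation.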
% is set by controls: 0 for no effect and ±100 for the full control effect; potency is the fitted concentration of half-maximal effect; tags give direction and shape of the fitted curve.

Row | Structure (SMILES) | activity change, negative = growth inhibition | Potency
1 | N#CCc1c(C#N)c(N)nc(Nc2ccccc2)c1C#N | inactive: 25.6% | –
2 | Cc1c(C(=O)N2CCOCC2)oc2c1-c1nn(CC(=O)NCc3cccc(F)c3)cc1CC2 | – | inconclusive [inhibitor, partial curve]
3 | C#CCNC(=O)C[C@@H]1C[C@@]2(C(=O)OC)CCCCC=C2N(Cc2ccc3c(c2)OCO3)C1=O | – | inconclusive [inhibitor, single point]
4 | COC(=O)c1ccc(Cl)cc1NC(=O)NCCc1c(C)nn(C)c1C | – | inconclusive [inhibitor, single point]
5 | COc1cccc(C2CC(C(F)(F)F)n3ncc(C(=O)NCc4ccco4)c3N2)c1 (configuration not stated) | inconclusive: -32.6% [inhibitor] | –
6 | COC(=O)c1ccc(S(=O)(=O)N2CCN(C(c3ccccc3)c3ccccc3)CC2)n1C | – | inconclusive [inhibitor, partial curve]
7 | CCn1c(CNS(=O)(=O)c2ccc(Cl)cc2)n[nH]c1=S | inactive: 1.74% | –
8 | O=C(NC1CC1)c1ccc(C2SCC(=O)N2Cc2ccccc2)cc1 (configuration not stated) | inactive: -8.85% | –
9 | COc1ccc(C(=O)COC(=O)c2cccs2)cc1 | – | inconclusive [inhibitor, partial curve, poor fit]
10 | CN(C(=O)CN1C(=O)S/C(=C\c2ccccc2F)C1=O)C1CCS(=O)(=O)C1 (configuration not stated) | inactive: -1.69% | –
11 | CCc1nc(NCCCn2ccnc2)c2oc3ccccc3c2n1 | – | inconclusive [inhibitor, partial curve]
12 | OCCNc1nc(Nc2ccccc2)nc2ccccc12 | – | active: 13 µM
13 | O=C(CSc1nnc(-c2cccnc2)n1Cc1ccco1)N1CCc2ccccc21 | – | inconclusive [inhibitor, single point]
14 | Cc1cc(OCC(=O)N(C(C)C)C(C)C)cc(C)c1Br | – | inconclusive [inhibitor, single point]
15 | COc1ccc(-c2cc(NC(C)=O)c3ncc(-c4ccccc4)n3c2)cc1OC | – | inconclusive [inhibitor, single point]
16 | CC(C)(C)C1CCc2c(sc(NC(=O)Cn3nnc(-c4ccccc4Cl)n3)c2C#N)C1 (configuration not stated) | inactive: -17.4% | –
17 | CN(c1ccc(F)cc1)S(=O)(=O)c1ccc(Cl)c(C(=O)Nc2ccncc2)c1 | – | active: 13 µM
18 | CC1(C)C(=O)C=C[C@@]2(C)C1C=C[C@@]1(C)C2CC[C@@]2(C)C(c3ccoc3)OC(=O)C3OC312 (some centres not stated) | – | active: 11.6 µM
19 | Clc1ccccc1-c1nnc2sc(-c3ccc4c(c3)OCO4)nn12 | – | inconclusive [inhibitor, single point]
20 | CCOC1=C2CN(S(=O)(=O)c3ccc(C)cc3)[C@@H](c3cccs3)C[C@H]2[C@H]2C(=O)N(c3ccccc3)C(=O)[C@H]2C1 | inactive: 12.4% | –
21 | COc1ccc(OC)c(CCNC(=O)CN2C(=O)CCSc3ccccc32)c1 | inactive: -12.8% | –
22 | Cc1ccccc1OCCn1cc(C(=O)C(=O)N2CCOCC2)c2ccccc21 | – | inconclusive [inhibitor, single point]
23 | O=C(CN(Cc1ccco1)C(=O)CNS(=O)(=O)c1ccc(Cl)cc1)NC1CCCCC1 | – | inconclusive [inhibitor, partial curve]

Row | Structure (SMILES) | activity change, negative = growth inhibition | Potency
24 | N#C/C(C(=O)N1CCCCC1)=C1\Nc2ccccc2S1 | – | inconclusive [inhibitor, single point]
25 | Cc1ccc(CNc2ccc(-c3nc(-c4ccncc4)no3)cc2[N+](=O)[O-])cc1 | inactive: -7.19% | –
26 | CSc1nc2nccc(/C=C\c3ccccc3)n2n1 | – | active: 23.1 µM
27 | Cc1cccc(N2CCN(C(=O)CS(=O)(=O)c3cccc4nsnc34)CC2)c1C | – | inconclusive [inhibitor, single point]
28 | CCN1C(=O)[C@@H]2[C@H](C1=O)[C@@H]1C[C@H]3C(=O)N(CC)C(=O)[C@H]3[C@@H]3C1=C(C(=O)N1C(=O)OC(=NCC4CC4)[C@]31C)[C@@H]2C | inactive: 3.21% | –
29 | S=C(NC12CC3CC(CC(C3)C1)C2)N1CCCC1 | – | inconclusive [inhibitor, single point]
30 | CC(C)(C)OC(=O)[C@H](Cc1ccccc1)NC(=O)c1nc[nH]c1C(=O)NCCCCCN | – | inconclusive [inhibitor, single point]
31 | CCOC(=O)c1c(C)[nH]c(C)c1S(=O)(=O)N1CCC(C(=O)Nc2cc(C)ccn2)CC1 | inactive: 9.83% | –
32 | Cc1cccc(C)c1-n1c(C)nn(Cc2ccc([N+](=O)[O-])cc2)c1=O | inconclusive: -30.2% [inhibitor] | –
33 | CCc1ccccc1NS(=O)(=O)c1ccc2[nH]cc(C(=O)N(CC(C)C)CC(C)C)c(=O)c2c1 | – | inconclusive [inhibitor, single point]
34 | Cc1ccc2nc(COc3ccccc3NC(=O)COc3ccc(F)cc3)cc(=O)n2c1 | inactive: -13.5% | –
35 | O=C(COC(=O)CCc1c[nH]c2ccccc12)NC(c1ccccc1)c1ccccc1 | – | inconclusive [inhibitor, full curve]
36 | CC(=O)Nc1ccc(/C=C/c2ccnc3ccccc23)cc1[N+](=O)[O-] | – | inconclusive [inhibitor, partial curve]
37 | NC(=O)c1ccc(Nc2nc(C(N)COCc3ccccc3)cs2)cc1 (configuration not stated) | – | inconclusive [inhibitor, single point]
38 | Cc1ccc(-c2nc(S(=O)(=O)c3ccccc3)c(N3CCN(c4ccccc4)CC3)o2)cc1 | – | inconclusive [inhibitor, single point]
39 | CC(C)(C)OC(=O)C[C@@H]1C/C=C\C[C@H](CC(=O)N(CCO)Cc2ccccc2)C(=O)N[C@H](Cc2ccccc2)COC1=O | – | active: 23.1 µM
40 | C=CC[N@@+]12CC[C@]34c5ccccc5N5/C=C6\C7N(/C=C(\C53)[C@@H](C[C@@H]41)/C(=C/CO)C2)c1ccccc1[C@@]71CC[N@@+]2(CC=C)C/C(=C\CO)[C@@H]6C[C@@H]12 (some centres not stated) | inactive: 11% | –
41 | CCCC(=O)NNc1c2ccccc2nc2ccccc12 | – | inconclusive [inhibitor, single point]
42 | COc1cc(C)ccc1OCCCOc1ccccc1Cl | – | inconclusive [inhibitor, single point]
43 | COc1cccc(N/C(SCc2ccccc2F)=C(/C#N)C(=O)NCc2cccs2)c1 | – | inconclusive [inhibitor, single point]
44 | O=c1c2ccccc2[nH]c(=S)n1CCCN1CCOCC1 | inactive: 9.34% | –
45 | Cc1cc(NC(=O)C2(c3ccccc3)CCCC2)no1 | – | inconclusive [inhibitor, single point]
46 | COc1cc2nc(CN(CCC(C)C)Cc3nc4cc(OC)c(OC)cc4c(=O)[nH]3)[nH]c(=O)c2cc1OC | inactive: -8.33% | –

Row | Structure (SMILES) | activity change, negative = growth inhibition | Potency
47 | CCc1ccccc1N(CC)C(=O)c1c(C)oc2ncn(C)c(=O)c12 | – | inconclusive [inhibitor, single point]
48 | O=C(Cc1cccc(NC(=O)C2CCCN(C(=O)CCc3ccccc3)C2)c1)Nc1cccc(C(=O)N2CCOCC2)c1 (configuration not stated) | – | inconclusive [inhibitor, single point]
49 | CCOC(=O)c1cnc(Nc2nc3ccccc3o2)nc1CN1CCN(C)CC1 | – | active: 13 µM
50 | CCOC(=O)C1CCN(S(=O)(=O)c2ccc(C(C)(C)C)cc2)CC1 | – | inconclusive [inhibitor, single point]
51 | CCOc1ccc(N2CC(C(=O)NC3CCCCCC3)CC2=O)cc1 (configuration not stated) | inactive: 6.49% | –
52 | COc1ccccc1N1CCN(C(=O)c2cc(CC(C)C)on2)CC1 | – | inconclusive [inhibitor, single point]
53 | CC(NCC(=O)Nc1cc(Cl)cc(Cl)c1)c1ccccc1 (configuration not stated) | – | inconclusive [inhibitor, partial curve, poor fit]
54 | Cc1ccc(N=Cc2c(O)c3ccccc3n(C)c2=O)cc1 | inactive: -20.2% | –
55 | CC1(C)C2CCC1(C)C(OCC[N+](C)(C)CC(=O)OC1CCCCC1)C2 (configuration not stated) | – | active: 0.651 µM
56 | COCCNC(=O)C1CCCN(C(=O)c2ccc(F)c(C)c2)CC1 (configuration not stated) | inactive: 0.694% | –
57 | CCc1nc2c(OCc3cccc(Cl)c3)cccn2c1N(C)C(=O)Nc1ccccc1OC | – | active: 23.1 µM
58 | C=C(C)C1CC=C(C)/C(=N/NC(=O)CCC(=O)Nc2ccccc2Cl)C1 (configuration not stated) | – | inconclusive [inhibitor, partial curve, poor fit]
59 | CN(C)c1cccc(C(=O)OC(C(=O)Nc2ccc(Cl)cc2C(F)(F)F)c2ccccc2)c1 (configuration not stated) | – | inconclusive [inhibitor, single point]
60 | CCCn1nc(C(=O)Nc2cc(S(=O)(=O)Nc3ccc(OC)cc3)ccc2O)c2ccccc2c1=O | – | inconclusive [inhibitor, partial curve]
61 | O=C(CCn1nnnc1CN1CCOCC1)N1CCC(c2ccccc2F)C1 (configuration not stated) | inactive: 12.2% | –
62 | C=CCCN(C1CCCC1)S(=O)(=O)c1ccccc1Br | inactive: -33.6% | –
63 | COc1cccc(C(NC(C)=O)c2nc(-c3ccc(C)c(C)c3)cs2)c1 (configuration not stated) | – | inconclusive [inhibitor, single point]
64 | Nc1ccc(C(=O)N2CCN(S(=O)(=O)c3ccc(Br)cc3)CC2)cc1[N+](=O)[O-] | – | inconclusive [inhibitor, single point]
65 | O=C(Nc1ccccc1C(=O)OCc1cc(=O)n2c3c(sc2n1)CCCC3)c1ccc(F)cc1 | – | inconclusive [inhibitor, single point]
66 | O=C(COC(=O)c1cncc(Br)c1)NCc1ccco1 | inactive: 1.93% | –
67 | CC(C)Sc1ccccc1C(=O)Nc1ccc2c(c1)n(C)c(=O)n2C | – | inconclusive [inhibitor, single point]
